The values that follow come from the supplement of paper PMC3334620.

Whole data set: some 33,000 sequences, median “E-score (-0.5 to 0.5)” near -0.01, cut for the highest 2% near 0.26. The list shows a part of the results.

In the test the target is Ste12 (UniProt P13574). Nature of the test: PBM E-score (8-mer binding enrichment) (E-score (-0.5 to 0.5)); higher = stronger / more preferred TF binding; most listed sequences are background and not binding sites. The conditions noted are these: protein concentration: 200 nM; construct: GST-DNA-binding domain. A digest of the protocol: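 Masliner-normalised scans of fluorescent anti-GST signal were the basis for scoring. That signal came from GST-tagged yeast transcription factors applied at about 100-200 nM to double-stranded universal all-10-mer Agilent arrays on fresh or once-stripped slides. Each ungapped eight-base word, pooled with its reverse complement, received an E-score from the Universal PBM Analysis Suite.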
TACAATCA: the “PBM E-score” value stood at 0.0199.
Take AAATGTAG: the “PBM E-score” value was determined as 0.0598.
In the case of ACAGCTCC it was 0.0816.
In the case of GATGTTCC it was 0.0244; in that of GCGCTGGA, 0.0382; in that of TATTGCCA, 0.113.
In the case of CGAAGTCA it was -0.0644; in that of ATTCGCTC, 0.109; in that of AAGATGGA, 0.0973.
As for GCTGCCCA, the “PBM E-score” value was -0.123.
In the case of AGCGTTGG it was -0.0331; in that of GCTAATCA, 0.0329.
GAGCACTA: the “PBM E-score” value is -0.294.
In the case of ATCGCAAA it was 0.0711; in that of AGTCTAGA, -0.075; in that of TCCAAGGA, -0.0452.
In the case of GATCAGGC it was -0.221; in that of ATTGAGTG, 0.13.
In the case of ACGTCAAC it was -0.0173; in that of TACTCCAA, 0.0744.
For the sequence AACGAAGG, the “PBM E-score” value is -0.264.
For TCTTCGCA, the “PBM E-score” value turned out to be 0.0115.
Consider CTTCAGTC, for which the “PBM E-score” value is -0.119.
In the case of CCATTTGA it was -0.114.
With CGTGCTAA, the “PBM E-score” value is -0.0629.
In the case of AATCTTGT it was 0.135; in that of GTCGCAGA, 0.055; in that of ACCCTCCC, 0.378.
In the case of GATCGACA it was -0.0651.
As for ATACGGGC, the “PBM E-score” value is -0.122.
In the case of CAGTCTGG, the “PBM E-score” value is -0.0676.
On to ATTCTATG, for which the “PBM E-score” value came out at 0.21.
In the case of AGGATATG it was -0.0599.
In the case of ATACCGAA it was 0.0977; in that of TGAACAAA, 0.212.
In the case of ACGAGCCC it was -0.0742.
GCAGAATA: the “PBM E-score” value was 0.136.
In the case of CAACTCAC it was -0.133; in that of GCTAGTTA, -0.0188; in that of CCTTCAAG, -0.066.
In the case of AGCACGAT it was 0.0674.
In the case of AAGGGTAG it was -0.0808; in that of CATCCAAG, -0.0904; in that of CCCCTGAA, 0.0279.
With ATGTATGG, the “PBM E-score” value is 0.0672.
In the case of AGACCCCC it was -0.134.
In the case of ATCTATTA it was 0.176.
In the case of AGCGCGGA it was 0.14; in that of CTTTGCCC, -0.134.
For the sequence ACGCACTA, the “PBM E-score” value was -0.153.
In the case of GAGGTATA it was 0.122; in that of TATATGAA, 0.17; in that of ACTGTTGA, 0.186.
For the sequence AGTATCTG, the “PBM E-score” value was -0.204.
Turning to ACGATGCA, the “PBM E-score” value is -0.0403.
In the case of ATAGTAGA it was 0.0533; in that of AGATTCCA, 0.106.
For AGTACTAA, the “PBM E-score” value amounted to 0.0974.
In the case of AAGTTCCT it was -0.202; in that of AAGACACG, -0.0605; in that of AGTCCGTC, -0.104.
In the case of CGTGGTTA it was 0.0817; in that of CCGCCTTA, 0.0555; in that of ACAATGCA, 0.0812.
In the case of CAGGTTGG it was 0.0789; in that of CCGCACGG, -0.0176.
Take CGAAAGCC: the “PBM E-score” value was -0.119.
In the case of ATGTTCAA it was -0.077.
In the case of GGATTAAA it was 0.274; in that of GCGGTTGA, -0.0531.
In the case of ATTTAGTA it was 0.197; in that of GGCCAGAC, -0.0903; in that of ATCGACGC, -0.0385.
Turning to GCGATACC, the “PBM E-score” value was determined as 0.0176.
In the case of AGAACTGA it was 0.0891; in that of CCTTAGCA, 0.118.
In the case of TCTGGCCA it was -0.0752.
In the case of ATGGGGCG it was 0.201; in that of AATTCCAC, 0.169.
Regarding ACACTCCT, the “PBM E-score” value is -0.0346.
AATGATAA: the “PBM E-score” value stood at 0.263.
As for TATACGAA, the “PBM E-score” value came out at 0.223.
On to GGCCAACC, for which the “PBM E-score” value was -0.136.
In the case of AGGCGGCC, the “PBM E-score” value was -0.0597.
AGGTCGAC: the “PBM E-score” value is -0.0704.
Turning to ACTTGCAC, the “PBM E-score” value was 0.0286.
